Measurements as given in the supplement of paper PMC3334620.
The full ranking holds about 33,000 sequences; the median of “E-score (-0.5 to 0.5)” is about -0.021, and the highest 2% start at about 0.32. The list shows a part of the results.

Target: T1, Zap1 (UniProt P47043)
T1 sequence: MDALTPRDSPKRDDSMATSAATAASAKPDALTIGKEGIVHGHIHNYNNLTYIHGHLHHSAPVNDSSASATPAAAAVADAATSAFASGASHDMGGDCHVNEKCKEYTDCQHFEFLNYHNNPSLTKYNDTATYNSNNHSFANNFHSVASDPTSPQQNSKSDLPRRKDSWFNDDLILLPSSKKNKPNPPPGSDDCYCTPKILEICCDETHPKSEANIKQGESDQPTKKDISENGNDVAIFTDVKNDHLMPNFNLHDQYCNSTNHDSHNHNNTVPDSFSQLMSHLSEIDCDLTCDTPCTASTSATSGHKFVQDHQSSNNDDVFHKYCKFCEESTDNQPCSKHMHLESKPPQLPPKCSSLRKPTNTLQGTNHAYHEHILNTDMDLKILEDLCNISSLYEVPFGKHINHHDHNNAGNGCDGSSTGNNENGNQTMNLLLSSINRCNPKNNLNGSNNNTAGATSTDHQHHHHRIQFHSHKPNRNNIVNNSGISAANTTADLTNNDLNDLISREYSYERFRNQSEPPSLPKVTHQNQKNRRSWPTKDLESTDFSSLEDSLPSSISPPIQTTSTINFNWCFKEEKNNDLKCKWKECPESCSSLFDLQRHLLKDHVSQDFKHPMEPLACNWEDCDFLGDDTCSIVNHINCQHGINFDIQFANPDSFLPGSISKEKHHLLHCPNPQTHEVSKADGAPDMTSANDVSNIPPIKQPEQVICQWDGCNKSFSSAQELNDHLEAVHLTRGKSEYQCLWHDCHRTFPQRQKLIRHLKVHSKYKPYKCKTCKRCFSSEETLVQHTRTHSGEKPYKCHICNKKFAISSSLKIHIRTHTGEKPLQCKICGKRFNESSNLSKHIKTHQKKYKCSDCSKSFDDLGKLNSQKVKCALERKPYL
Assay: PBM E-score (8-mer binding enrichment) (E-score (-0.5 to 0.5)); higher = stronger / more preferred TF binding; most listed sequences are background and not binding sites
Details: protein concentration: 200 nM; construct: GST-full length
Outline: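 Detection of bound protein used fluorescent anti-GST, with scans normalised by masliner. The proteins were GST-tagged yeast transcription factors applied at about 100-200 nM to universal all-10-mer Agilent arrays made double-stranded by primer extension. Each ungapped eight-base word, pooled with its reverse complement, was scored with an E-score from the Universal PBM Analysis Suite.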

Row | Sequence | PBM E-score
1 | GTCATAAA | 0.208
2 | ACGTCGCG | -0.0819
3 | GCTTTGGA | 0.107
4 | AACATCGC | -0.139
5 | CAACTCCA | -0.032
6 | AATTGGAT | 0.0801
7 | CTTATTCA | -0.0462
8 | TAATAAGA | 0.0456
9 | ATTAAAAT | 0.149
10 | ATCCCTGG | 0.00394
11 | CGGGACTC | -0.0456
12 | AGAAATAT | 0.127
13 | GACGTGGC | -0.238
14 | CGGAGTAA | 0.0567
15 | AATAACTA | 0.209
16 | CGTCGAGA | 0.037
17 | CCATTAAG | 0.0835
18 | AAAACATT | 0.012
19 | GCAATGAC | -0.122
20 | CGGTAGTC | 0.0423
21 | TCCCACAA | 0.0902
22 | ATGCAAGA | 0.0828
23 | GAAGTCTA | -0.256
24 | ACCAGGCG | -0.0944
25 | AGGATAAT | 0.0419

Row | Sequence | PBM E-score
26 | AACATCTT | -0.134
27 | AGCATCGA | -0.0724
28 | TGTGCGAA | -0.16
29 | AGTACCCA | 0.289
30 | CTGCTCCC | -0.267
31 | TCCTTAAA | 0.15
32 | AAAAGCTA | -0.0831
33 | ATAAAGTA | 0.189
34 | CACCCTCA | 0.257
35 | GGGTTTTA | 0.284
36 | ACGCCCGG | -0.14
37 | CTTTACTC | 0.0846
38 | AAGTCTTG | -0.0824
39 | CGGGGCTA | -0.15
40 | CATACATG | -0.0908
41 | AGAGGAAG | -0.231
42 | CTCCAAGC | -0.0893
43 | GGGCGCGA | 0.182
44 | CAGCCTCC | -0.307
45 | ACTCGCAA | 0.0584
46 | ATGTTACG | 0.0803
47 | CCCTCAGC | -0.105
48 | AAATCACG | 0.0527
49 | CCCGCGGC | 0.124
50 | GGCCTCAA | 0.219

Row | Sequence | PBM E-score
51 | AGCCCCGG | -0.0664
52 | CGTGAGAC | 0.138
53 | GATCAACA | -0.00318
54 | CACGAGCA | -0.176
55 | AAACCTGG | 0.109
56 | TCCGCAGA | -0.00483
57 | ATCCGCGC | -0.00778
58 | AATCTCGG | -0.0634
59 | AACGGCAT | 0.039
60 | ACAACAGT | -0.0672
61 | CAGATGAC | -0.0153
62 | ACTCAAAC | 0.133
63 | GGGGGGTA | -0.0438
64 | AACAATTG | -0.0863
65 | CTCAGCGC | -0.28
66 | GACTTACC | 0.066
67 | GGCCCCCA | -0.0538
68 | CTACTAGC | 0.079
69 | ACGACCCC | 0.219
70 | GATGCTGA | -0.296
71 | GACGCTAC | -0.0985
72 | ACGGAAAG | 0.0577
73 | TGTCACAA | 0.0989
74 | CTTACCAA | 0.0782
75 | CTATACCC | 0.304

Row | Sequence | PBM E-score
76 | ACTAACCT | 0.318
77 | AATGAATA | 0.0228
78 | GTACCGCA | 0.383
79 | CGGACGAG | -0.067
80 | GCCTGTCC | -0.2
81 | CCAACACG | -0.095
82 | ATCTCCGA | -0.19
83 | TCTTCACA | 0.0396
84 | CGCACAAC | 0.122
85 | ATGAAGCC | 0.0509
86 | ACTGAGTC | -0.0962
87 | CACCTAGC | -0.195
88 | GTGATATA | -0.0995
89 | GGCCGCGA | 0.0539
90 | AGGAATTG | -0.0401
91 | CAGCTGAA | -0.0287
92 | CCGAGTAG | -0.00973
93 | ATCCCGGG | 0.126
94 | ATCAGCCC | -0.156
95 | CCATATTC | 0.0278
96 | CAATGTCC | -0.0541
97 | ACCTTCGG | 0.112
98 | GTGTTTCA | 0.07
99 | CTCGGCGA | -0.172
100 | ATGTAACA | 0.153

Row | Sequence | PBM E-score
101 | AAAGGAAA | 0.0895
102 | AGGAAGGC | -0.18
103 | GCTATAAC | 0.215
104 | CTTCAGAA | 0.193
105 | CCCCACCC | 0.357
106 | CCCTACGC | -0.17
107 | GCCTGAAC | -0.215
108 | GGGCCACC | 0.232
109 | AAATCTAA | 0.0835
110 | AGTTTTGA | -0.0744
111 | GCAGCAAA | 0.0321
112 | ACTCTAAT | 0.0165
113 | GATCCTCC | -0.328
114 | ACTCCAAC | -0.0823
115 | GGGCCCAA | 0.148
116 | CACGTGTC | -0.205
117 | CGGGGGGC | -0.277
118 | GGGATTGA | -0.176
119 | GTGCCAGA | -0.276
120 | CGGTATAC | -0.079
121 | GGTATGCA | 0.081
122 | AGTGTAAA | 0.193
123 | TATCTCGA | -0.0269
124 | CAGTATGC | -0.176
125 | CGCTTGGA | -0.0704

Row | Sequence | PBM E-score
126 | GCCTCACC | -0.121
127 | GGCTCGAC | -0.28
128 | AAGGTTGC | 0.343
129 | ATCGATGG | 0.0383
130 | AGAGGCCT | -0.0267
131 | ACTCACCT | -0.0726
132 | AAAGAGCA | 0.0418
133 | AGCGCCAA | -0.257
134 | CGGGACAG | 0.0162
135 | GTTGCTCA | -0.0435
136 | GAGTTTCC | -0.061
137 | ACAGAGTC | -0.197
138 | GTTACCAA | 0.362
139 | CCGAGAGA | 0.163
140 | CGGACAGC | -0.261
141 | ACGCGCGA | 0.0553
142 | AGTTATAT | 0.0232
143 | AACTCATA | 0.0542
144 | GTACGAAA | 0.134
145 | ACTCTAGG | 0.0301
146 | GAACTATA | 0.0416
147 | ATTGCCTG | -0.0833
148 | GAACATTA | 0.0396
149 | AGGGCCTG | -0.0732
150 | CCATCACA | -0.045

Row | Sequence | PBM E-score
151 | CACGGATG | -0.105
152 | AACTGATG | 0.0405
153 | AAAGGGTA | 0.415
154 | AAGCGCCC | -0.285
155 | CAAGGGGA | -0.129
156 | TCAAATCA | -0.00999
157 | CGAGTCTA | -0.218
158 | AAAAACCT | 0.286
159 | CTGCCCGA | -0.0867
160 | CGGTGACC | 0.327
161 | AGCAACCA | 0.0671
162 | AAATCGGC | -0.0898
163 | AGTATTAG | 0.153
164 | TACCATCA | 0.192
165 | AGGGGACC | 0.151
166 | CGCTTTGA | 0.0708
167 | ATAATAAA | 0.219
168 | AACTCGCG | 0.124
169 | ACTAGTCC | -0.2
170 | CTAATACC | 0.185
171 | ATTAGTTG | 0.24
172 | GCCTACTA | -0.0183
